# IC50 is the fitted dose that halves viability relative to control wells, and lower means more sensitive; where the fit passes the top or lowest dose, that dose stands as a limit. AUC is the area under the same curve over the 256-fold range up to the top dose, as a fraction; the more sensitive the line, the further below 1.
# Compound: NC1(c2ccc(-c3nc4ccn5c(=O)[nH]nc5c4cc3-c3ccccc3)cc2)CCC1 [MK-2206]
# Assay: Viability of human cancer cell lines after 72 h of drug (GDSC screen)
# Method: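 Human cancer cell lines in 384-well plates, medium with 10% serum, drug for 72 h over a 256-fold dose range (nine 2-fold or five 4-fold steps up to the top dose). Adherent lines were fixed and stained with the nucleic acid dye Syto60, suspension lines read with resazurin; signal relative to control wells, capped at 0 and 100%. One two-parameter sigmoid per drug and line, fitted in a mixed model over all curves with the slope shared within a line.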
Cell Line,AUC,IC50 [µM]
"RCC-FG2 (kidney, adherent, top dose 4 µM)",0.536,0.321
"RCC-JF (kidney, adherent, top dose 4 µM)",0.699,0.98
"RCC-JW (kidney, adherent, top dose 4 µM)",0.701,0.934
"RCC-MF (kidney, adherent, top dose 4 µM)",0.766,1.91
"RCH-ACV (B-cell leukaemia, suspension, top dose 4 µM)",0.364,0.114
"RCM-1 (large intestine, adherent, top dose 4 µM)",0.983,> 4
"REH (B-cell leukaemia, suspension, top dose 4 µM)",0.584,0.42
"RERF-LC-KJ (lung adenocarcinoma, adherent, top dose 4 µM)",0.876,> 4
"RERF-LC-MS (lung adenocarcinoma, adherent, top dose 4 µM)",0.986,> 4
"RERF-LC-Sq1 (lung squamous cell carcinoma, adherent, top dose 4 µM)",0.858,> 4
"RF-48 (stomach, adherent, top dose 4 µM)",0.932,> 4
"RH-1 (rhabdomyosarcoma, adherent, top dose 4 µM)",0.915,> 4
"RH-18 (rhabdomyosarcoma, adherent, top dose 4 µM)",0.895,> 4
"RKN (ovary, adherent, top dose 4 µM)",0.839,2.95
"RKO (large intestine, adherent, top dose 4 µM)",0.755,1.27
"RL (B-cell lymphoma, suspension, top dose 4 µM)",0.863,2.99
"RO82-W-1 (thyroid, adherent, top dose 4 µM)",0.913,> 4
"ROS-50 (B-cell leukaemia, suspension, top dose 4 µM)",0.984,> 4
"RPMI-2650 (head and neck, adherent, top dose 4 µM)",0.876,> 4
"RPMI-6666 (Hodgkin lymphoma, suspension, top dose 4 µM)",0.894,> 4
"RPMI-7951 (melanoma, adherent, top dose 4 µM)",0.903,> 4

Cell Line,AUC,IC50 [µM]
"RPMI-8226 (myeloma, suspension, top dose 4 µM)",0.84,2.25
"RPMI-8402 (T-cell lymphoblastic leukaemia, suspension, top dose 4 µM)",0.679,0.72
"RPMI-8866 (chronic myeloid leukaemia, suspension, top dose 4 µM)",0.837,2.41
"RS4-11 (leukaemia, suspension, top dose 4 µM)",0.495,0.243
"RT4 (bladder, adherent, top dose 4 µM)",0.987,> 4
"RVH-421 (melanoma, adherent, top dose 4 µM)",0.854,> 4
"RXF393 (kidney, adherent, top dose 4 µM)",0.745,1.7
"Raji (Burkitt lymphoma, suspension, top dose 4 µM)",0.99,> 4
"Ramos-2G6-4C10 (Burkitt lymphoma, suspension, top dose 4 µM)",0.697,0.81
"SAS (head and neck, adherent, top dose 4 µM)",0.966,> 4
"SAT (head and neck, adherent, top dose 4 µM)",0.753,2.07
"SBC-1 (small cell lung carcinoma, suspension, top dose 4 µM)",0.883,> 4
"SBC-3 (small cell lung carcinoma, adherent, top dose 4 µM)",0.98,> 4
"SBC-5 (small cell lung carcinoma, adherent, top dose 4 µM)",0.993,> 4
"SCC90 (head and neck, adherent, top dose 4 µM)",0.844,> 4
"SCC-9 (head and neck, adherent, top dose 4 µM)",0.969,> 4
"SCC-15 (head and neck, adherent, top dose 4 µM)",0.895,> 4
"SCC-25 (head and neck, adherent, top dose 4 µM)",0.84,3.29
"SCH (stomach, adherent, top dose 4 µM)",0.968,> 4
"SF126 (glioma, adherent, top dose 4 µM)",0.753,1.4
"SF268 (glioma, adherent, top dose 4 µM)",0.854,3.54

Cell Line,AUC,IC50 [µM]
"SF295 (glioma, adherent, top dose 4 µM)",0.862,3.86
"SF539 (glioma, adherent, top dose 4 µM)",0.912,> 4
"SH-4 (melanoma, adherent, top dose 4 µM)",0.973,> 4
"SHP-77 (small cell lung carcinoma, semi-adherent, top dose 4 µM)",0.883,3.5
"SIMA (neuroblastoma, adherent, top dose 4 µM)",0.868,> 4
"SISO (cervix, adherent, top dose 4 µM)",0.817,2.11
"SJRH30 (rhabdomyosarcoma, adherent, top dose 4 µM)",0.862,3.62
"SJSA-1 (bone, adherent, top dose 4 µM)",0.901,> 4
"SK-CO-1 (large intestine, adherent, top dose 4 µM)",0.904,> 4
"SK-ES-1 (Ewing sarcoma, semi-adherent, top dose 4 µM)",0.824,2.58
"SK-GT-2 (stomach, adherent, top dose 4 µM)",0.664,0.735
"SK-GT-4 (oesophagus, adherent, top dose 4 µM)",0.616,0.565
"SK-HEP-1 (liver, adherent, top dose 4 µM)",0.967,> 4
"SK-LMS-1 (soft tissue, adherent, top dose 4 µM)",0.663,0.693
"SK-LU-1 (lung adenocarcinoma, adherent, top dose 4 µM)",0.918,> 4
"SK-MEL-1 (melanoma, suspension, top dose 4 µM)",0.993,> 4
"SK-MEL-2 (melanoma, adherent, top dose 4 µM)",0.879,> 4
"SK-MEL-3 (melanoma, adherent, top dose 4 µM)",0.936,> 4
"SK-MEL-5 (melanoma, adherent, top dose 4 µM)",0.856,> 4

# From the supplement of paper PMC4967469
